The subject of this experiment is MIWI (PIWIL1) piRISC loaded with L1MC piRNA (30 nt). Briefly: pre-steady-state target cleavage rate (min^-1); MIWI and MILI are mouse PIWI proteins and EfPiwi is from a freshwater sponge; tags in brackets are library labels; higher = faster piRNA-guided slicing of the target. To be noted: guide: L1MC piRNA 5'p-UAACUAAAUACUAUGCAAGCUGUAGGUCCU
An outline of the steps: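 Cleave-'n-Seq: a transcribed, DNA-blocked target RNA library (0.1 nM) was mixed with 1 nM active affinity-purified piRISC carrying one synthetic guide, with or without 500 nM GTSF1 partner protein, in HEPES–potassium acetate buffer at 33 °C for 0–8 or 0–960 min. Uncleaved targets were sequenced and normalised to depth and to weakly complementary targets. Three trials were pooled, and k3 was capped at 0.0001 min^-1. The pre-steady-state cleavage rate came from a burst-and-steady-state fit.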

[1] abbreviates: auxiliary factor: 500 nM mouse GTSF1.
Setting [2] is: auxiliary factor: none (no GTSF1).

± gives the standard deviation. The list shows a part of the results, in another mix than the full data.

Consider UCCUCCUAUCAGCUUGCAUAGUAUUUAGUUA, for which the “pre-steady-state target cleavage rate” value under setting [1] amounted to 1.49 ± 0.072 and the “pre-steady-state target cleavage rate” value under setting [2] worked out at 0.0492 ± 0.011.
For UCCUGGAACAGGUUGCAUAGAAUUUAGUUA, the “pre-steady-state target cleavage rate” value under setting [1] came to 0.342 ± 0.025 and the “pre-steady-state target cleavage rate” value under setting [2] came to 0.0148 ± 0.0049.
The matching figures for UCGACCUACAGCUUGCAUUGUAUUAAGUUA: 0.508 ± 0.029 and 0.01 ± 0.0031.
For UCCACCUUCAGCUUGCAUAGUAUUUAGAAA, in that order: 0.301 ± 0.048 and 0.00449 ± 0.0024.
In the case of UCCUGGAACAGCUUGCACAGUAUUUAGUUA, the “pre-steady-state target cleavage rate” value by setting is: under setting [1], 1.01 ± 0.035; under setting [2], 0.0853 ± 0.018.
The matching figures for UCCUGCUACAGCGUGCAUAGUAUUUAGUUA: 1.27 ± 0.074 and 0.0183 ± 0.005.
UCCUGCUACAGCUUGCAAUGUAUUUAGUUA: the “pre-steady-state target cleavage rate” value reads like this: under setting [1], 0.516 ± 0.048; under setting [2], 0.0088 ± 0.0023.
For UCCUGGAACAGCUUAGCAUAGUAUUUAGUUA, the “pre-steady-state target cleavage rate” value worked out at 0.986 ± 0.049 under setting [1] and 0.0182 ± 0.0038 under setting [2].
As for UCCUGCUAGAGCUUGCAUAGUAUUAAGUUA, the “pre-steady-state target cleavage rate” value is, setting by setting: under setting [1], 0.679 ± 0.067; under setting [2], 0.0107 ± 0.0041.
As to UCCUGGAUGUGCUUGCAAAGUAUUUUGUUA, the “pre-steady-state target cleavage rate” value by setting is: under setting [1], 0.0495 ± 0.008; under setting [2], 0.0109 ± 0.0032.
Take AGGACCUACAGCUUGCAUUGUAAUUAGUUA: the “pre-steady-state target cleavage rate” value is, setting by setting: under setting [1], 0.417 ± 0.022; under setting [2], 0.0158 ± 0.0042.
Take UCCUGGUUCAGCUUGCAUAGUAUUUAGAUA: the “pre-steady-state target cleavage rate” value is, setting by setting: under setting [1], 0.261 ± 0.036; under setting [2], 0.0138 ± 0.0041.
UCCUCCUACAGCUAGCAUAGUAUUUAGUUA: the “pre-steady-state target cleavage rate” value under setting [1] turned out to be 0.838 ± 0.03 and the “pre-steady-state target cleavage rate” value under setting [2] was 0.016 ± 0.0034.
For UCCUGGAUGUGCUUGCAUACUAUUUAGUAA, in that order: 0.0415 ± 0.0087 and 0.00941 ± 0.0029.
For UCGACCUACAGUCUUGCAUAGUAUUUAGUUA, in that order: 1.16 ± 0.063 and 0.0611 ± 0.012.
On to UCCACCUACACCUUGCAUUGUAUUUAGUUA, for which the “pre-steady-state target cleavage rate” value is, setting by setting: under setting [1], 0.634 ± 0.019; under setting [2], 0.0252 ± 0.0054.
Turning to UGGACCUACAGCUUGCUUAGAAUUUAGUUA, the “pre-steady-state target cleavage rate” value reads like this: under setting [1], 0.255 ± 0.022; under setting [2], 0.00925 ± 0.0033.
The matching figures for UCCUGGUACAGCUUGCAUAGUAUUUAGGUUA: 0.2 ± 0.036 and 0.0317 ± 0.0097.
With UCCUCCUACAGCUUGCAUACUAUAUAGUUA, the “pre-steady-state target cleavage rate” value is, setting by setting: under setting [1], 0.198 ± 0.021; under setting [2], 0.0096 ± 0.0023.
On to UCGACCUACAGCUUGCAUAGUAUUUAGAAA, for which the “pre-steady-state target cleavage rate” value was found to be 0.662 ± 0.066 under setting [1] and 0.0117 ± 0.0047 under setting [2].
UCCUGGAUGAGCUUGCAUUGUAUAUAGUUA: the “pre-steady-state target cleavage rate” value reads like this: under setting [1], 0.0647 ± 0.0061; under setting [2], 0.00744 ± 0.0031.
On to AGGACCUACAGCUUGCAUAGUAUUUACUAA, for which the “pre-steady-state target cleavage rate” value is, setting by setting: under setting [1], 0.274 ± 0.036; under setting [2], 0.0131 ± 0.0036.
The matching figures for UGGACCUACAGCAUGCAUAGUAUUUUGUUA: 0.807 ± 0.066 and 0.0191 ± 0.0055.
For UCCUGGAUCAGGUUGCAUAGUAAUUAGUUA, in that order: 0.113 ± 0.0098 and 0.00487 ± 0.0021.
As for AGGACCUACAGCUUGCAUAGUAUUUUCAUA, the “pre-steady-state target cleavage rate” value came out at 0.304 ± 0.044 under setting [1] and 0.00902 ± 0.005 under setting [2].
For UCGACCUACAGCUUGCAAAGUAAUUAGUUA, in that order: 0.871 ± 0.043 and 0.0086 ± 0.0031.

Values taken from the supplement of paper PMC10338343.
